Measured values taken from the supplement of paper PMC10126150.
Values marked as one replicate rest on one cluster of the flow cell; about a third of the high ones do not repeat.

Test system: ATP
Assay: switch fluorescence ratio, 500 uM ATP over buffer (Cy3 cluster intensity, sum of 5 cycles each) (fold (ratio)); higher = stronger signal-on switching upon ATP binding; sequences stand for … in TCGTCGGCAGCGTCAGATGTGTATAAGAGACAGTTTTTTTTTTTTTTTTTTTTTTTTT…TC
Settings: aptamer strand: ATP DNA aptamer (quencher-CACCTGGGGGAGTATTGCGGAGGAAGG + anchor), 100 nM annealed; ATP concentration: 500 uM; one replicate
Procedure, shortened: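 The fluorescence ratio divides summed target-cycle Cy3 intensity by summed buffer-cycle Cy3 intensity for each cluster and is averaged per switch-domain sequence. Cy3-labelled switching-strand clusters on a modified Illumina MiSeq flow-cell were annealed to 100 nM quencher-labelled ATP aptamer, then imaged in selection buffer and again after 15 min with 500 uM ATP at 22 °C. Five such cycles were run, with NaOH stripping and re-annealing between them, and clusters outside 100-1000 RFU were excluded.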
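Further: ATP exposure 15 min at 22 °C before imaging.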

Sequence | switch fluorescence ratio
AGTATTGGA | 1.01
GATATCGCAT | 1.19
TCAAGATTAA | 0.973
TGCACAATTT | 1.02
CAATTAATTG | 0.953
TATACCCGCC | 1.22
ACTGCCCTCG | 1.14
CGTGGAATG | 0.987
ACGACAATTA | 1.26
TTTAGGCTC | 1.04
TCCTCTTGCT | 1.86
ATCGGTATAC | 1.79
TATCCCAAG | 0.987
CGGTGTGCTC | 1.04
ACGTCATATT | 1.18
CAATCGGGTT | 0.968
TTGATGTTAT | 0.979
TTAGGACCAT | 1
ATGCTTACCC | 1.09
GCGATTGTCT | 1.03
AAATCGCCGC | 1.11
CAAATGAGTA | 1.02
TGCTGATTGG | 0.943
TAGCCATAAA | 0.981
TCGCCGGCCG | 0.96
GATTAGCGAA | 1.01

Sequence | switch fluorescence ratio
TGCTGTTATT | 1.72
GGTTGACATG | 0.964
CATTAGGTAT | 0.986
AGAGGTGCGG | 0.967
GGTGGTCT | 0.992
AAAGCGTGGC | 1.08
CCGGGGTATA | 1.11
GGAGACAGAG | 0.967
AGATCGATGG | 1
TAGCCCTAAT | 0.99
TATTAGTAGG | 0.997
AACGACCATA | 1.18
CATTCTGGGT | 0.99
TAGAGGGATA | 1.01
CCATGGCCTA | 0.992
GGTGGAGTCC | 1.01
AGGTAATTGG | 0.985
ACAGATCAGG | 1.04
GCTTGGCTGG | 1
GCCTATATGA | 1.02
TACGAAGGG | 0.965
CGCCAGATAG | 1.05
ATTATTCGGC | 0.996
TCCATAACGT | 1.03
TCGTCCCTG | 1.04
AGTTCGTTGC | 0.982

Sequence | switch fluorescence ratio
AGAAGCACGA | 1.15
GCGGAAGAGG | 1.02
CCCCTGACCC | 1.14
GGGTAGCGG | 0.977
TGCGTTTTTT | 1
GTGTACCGTT | 0.982
ATTTGACTCA | 1.05
GCACAAAACA | 1.08
CGGATATTTC | 1.03
TAGTTAAGAT | 1.02
TACGGTTATT | 0.998
CCCCGAGTTC | 1.59
CAGAAGGGGC | 1.08
GATAGAATCG | 1.03
CCGGAAAAGG | 0.967
CTTACGTAAC | 1.51
ACTTGCGTGG | 0.997
CCACCGAGAT | 3.24
ACTTATTTAC | 1.05
CGTCAGGGCC | 1
AAGGCACGAC | 1.01
TTAGTGTTAA | 0.99
TCACGCTTGC | 1.14
CGATGCGGA | 1.09
TTACGAGTGA | 1.04
